The record followed here is the supplement of paper PMC12645437, “Orthogonal IMiD-Degron Pairs Induce Selective Protein Degradation in Cells” (ACS Chemical Biology, 2025).

The other results are listed elsewhere or left out.
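Note: jurkat cells carrying a lentiviral library of mutant zinc finger degrons fused to EGFP plus mCherry, mCherry+ cells FACS sorted, degron abundance counted by next-generation sequencing.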

In this assay the target is no compound (DMSO). Kind of assay: log2 fold change of degron read counts, EGFP-low vs EGFP+ sorted cells; higher = lower degron-EGFP level without compound (poor expression or instability). Particulars: compound: DMSO control; 18 h.
Regarding LACEICGFKCTQKGNLLRHIKL, the “log2 fold change of degron read counts” value is -0.731.

As to FKCEICGAGFTQKGNLLRHIKL, the “log2 fold change of degron read counts” value was -1.46.

In the case of FECEICGHPFTQKGNLLRHIKL, the “log2 fold change of degron read counts” value was -2.07.

On to FECPICGAYFTQKGNLLRHIKL, for which the “log2 fold change of degron read counts” value was -1.21.

Take FRCNVCGAVFTQKGNLLRHIKL: the “log2 fold change of degron read counts” value was -0.245.

FCCPICGHWFTQKGNLLRHIKL: the “log2 fold change of degron read counts” value was 0.592.

As to FRCNQCGALFTQKGNLLRHIKL, the “log2 fold change of degron read counts” value was -0.921.

As for FVCPVCGAQFTQKGNLLRHIKL, the “log2 fold change of degron read counts” value was -0.813.

Turning to FKCPICGRHFTQKGNLLRHIKL, the “log2 fold change of degron read counts” value is -0.443.

As to FSCEICGHSFTQKGNLLRHIKL, the “log2 fold change of degron read counts” value was -1.82.

On to FQCNICGAGFTQKGNLLRHIKL, for which the “log2 fold change of degron read counts” value was -0.613.

In the case of FICEVCGAVFTQKGNLLRHIKL, the “log2 fold change of degron read counts” value was -0.847.

As for FFCPQCGACFTQKGNLLRHIKL, the “log2 fold change of degron read counts” value was 0.0368.

Turning to LFCNQCGFSCTQKGNLLRHIKL, the “log2 fold change of degron read counts” value was found to be 0.875.

With FTCDVCGAGFTQKGNLLRHIKL, the “log2 fold change of degron read counts” value was -2.17.

FACNQCGHIFTQKGNLLRHIKL: the “log2 fold change of degron read counts” value is -0.116.

On to FLCEVCGALFTQKGNLLRHIKL, for which the “log2 fold change of degron read counts” value was -1.24.

As to FECNQCGHFFTQKGNLLRHIKL, the “log2 fold change of degron read counts” value is -0.136.

FVCDICGAHFTQKGNLLRHIKL: the “log2 fold change of degron read counts” value is -0.982.

Consider FQCEQCGALFTQKGNLLRHIKL, for which the “log2 fold change of degron read counts” value is -2.13.

Take LSCEICGFCCTQKGNLLRHIKL: the “log2 fold change of degron read counts” value was found to be 0.0752.

FWCEVCGAAFTQKGNLLRHIKL: the “log2 fold change of degron read counts” value was -1.21.

As for LACPICGFECTQKGNLLRHIKL, the “log2 fold change of degron read counts” value was -0.0967.

Take FNCPVCGARFTQKGNLLRHIKL: the “log2 fold change of degron read counts” value was -0.297.

Regarding FHCNQCGHQFTQKGNLLRHIKL, the “log2 fold change of degron read counts” value was determined as 0.0838.

For FQCSVCGHEFTQKGNLLRHIKL, the “log2 fold change of degron read counts” value is -3.27.

On to FYCNQCGHGFTQKGNLLRHIKL, for which the “log2 fold change of degron read counts” value came out at 0.185.

In the case of FYCNICGANFTQKGNLLRHIKL, the “log2 fold change of degron read counts” value was determined as 0.0113.

For FCCEVCGANFTQKGNLLRHIKL, the “log2 fold change of degron read counts” value was -2.14.

Consider LWCPICGFPCTQKGNLLRHIKL, for which the “log2 fold change of degron read counts” value was found to be 2.81.

On to FYCEICGAVFTQKGNLLRHIKL, for which the “log2 fold change of degron read counts” value is -0.327.

Take FLCPVCGAVFTQKGNLLRHIKL: the “log2 fold change of degron read counts” value amounted to 0.372.
